# Among all 410,000 compounds or so, about 260 (0.063%) were called active. The shares of active, inactive and inconclusive entries below differ from those in the screen. Calls follow the shape of the dose curve; as a rule, active = well fitted activation curve with a large enough effect; inconclusive = small, poorly fitted or top-dose-only effect; inactive = no such curve, though single readings can be large or run the other way. A potency beside an inconclusive call is a rough fit, not a confirmed value.
# Assay: qHTS for compounds that reverse cellular toxicity of Amyloid beta (A-beta) peptide in yeast: Primary Screen; also: nearly all actives have a fitted effect of over 55% in size
# Conditions: yeast expressing A-beta42, growth rescue, OD600, 48 h; growth rescue: at 46.1 µM (top of the series) unless noted
# How it was run: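 Yeast growth medium received pinned compounds, then yeast cells expressing toxic A-beta were added; plates incubated at 30 C for 48 hr. Growth read as absorbance at 600 nm, normalized to DMSO and equimolar FeCl3 plus clioquinol controls.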
# Potency is read from the fitted curve at half-maximal effect; tags tell the direction and shape of the fitted curve.
SMILES,Potency,growth rescue
O=C(CSC1c2ccccc2-c2ccccc21)N/N=C/c1ccccc1O,"inconclusive: 14.1 µM [activator, partial curve, poor fit]",–
CCC(C)NC(=O)CCC(=O)OC1O[C@H]2OC3(C)CC[C@H]4[C@H](C)CCC(C1C)C24OO3 (stereo partly drawn),–,inactive: -5%
Cc1ccccc1CN1CCN(Cc2ccccc2)CC1,–,inactive: -3.75%
Cc1ccc2c(c1Cl)NC(C(=O)O)C1CC(Sc3ccccc3[N+](=O)[O-])C(Cl)C21 (stereo not drawn),"inconclusive: 22.4 µM [activator, single point]",–
Cc1ccccc1CS(=O)(=O)Cc1ccc(C(=O)N2CCC3(CC2)OCCO3)o1,–,inactive: 6.55%
Nc1c(C(=O)NC2CCCC2)c2nc3ccccc3nc2n1CC1CCCO1 (stereo not drawn),–,inactive: 33.4%
Cn1c(O)c(C2=NNC(c3ccc(Cl)cc3)C2)c(=O)n(C)c1=O (stereo not drawn),active: 14.1 µM,–
CCCCCC(=O)N[C@@H](c1ccccc1)[C@@H](O)C(=O)O[C@H]1C[C@@]2(O)[C@@H](OC(=O)c3ccccc3)C3[C@](C)(C(=O)[C@H](O)C(=C1C)C2(C)C)[C@@H](OC1OCC(O)C(O)C1O)C[C@H]1OC[C@@]31OC(C)=O (stereo partly drawn),–,inactive: -0.665%
COC(=O)[C@]12OC[C@]34C([C@@H](O)[C@@H]1O)[C@]1(C)CC(=O)C(O)=C(C)[C@@H]1C[C@H]3OC(=O)[C@H](O)[C@@H]24 (stereo partly drawn),–,inactive: -0.997%
O=P(NC1CCCCC1)(Oc1ccccc1)Oc1ccccc1,"inconclusive: 2.82 µM [activator, full curve, poor fit]",–
Clc1ccccc1CN1CCN(c2ccccc2)CC1,–,inactive: -24%
O=C(/C=C/c1ccc(Br)cc1)NC(=S)N1C[C@H]2C[C@H](C1)c1cccc(=O)n1C2,–,"inconclusive: -73.6% [activator] [at 46.1 µM, 0% DMSO, 100% iron-clioquinol control]"
C[C@]12CCC3C(CC[C@H]4C[C@H](O)CC[C@]34C)C1C[C@@H](O)[C@H]2O (stereo partly drawn),"inconclusive: 12.6 µM [activator, partial curve, poor fit]",–
Nc1nnc(P(c2ccccc2)c2ccccc2)s1,"inconclusive: 2.82 µM [activator, partial curve, poor fit]",–
N#Cc1ccc(N2CCNCC2)c(F)c1,"inconclusive: 0.891 µM [activator, partial curve, poor fit]",–
C[C@]12CCC3C(CC[C@H]4C[C@@H](O)CC[C@]34C)C1C[C@@H](O)[C@]2(C)O (stereo partly drawn),"inconclusive: 35.5 µM [activator, single point]",–
CN1C(=O)C(c2ccccc2)C(=O)N(C)C1=O,"inconclusive: 5.62 µM [activator, single point]",–
S=C(NCCc1ccccc1)N1Cc2ccc(Br)cc2-n2nncc2C1,"inconclusive: 15.8 µM [activator, single point]",–
Cc1cc(OCCCC(=O)NCc2cccs2)ccc1Cl,"inconclusive: 3.55 µM [activator, partial curve]",–
c1ccc2c(CN3CCN(C4CCCCC4)CC3)c[nH]c2c1,"inconclusive: 12.6 µM [activator, single point]",–
O=C1NC(=S)NC(=O)C1=Cc1ccc(OCc2ccccc2)cc1,"inconclusive: 12.6 µM [activator, partial curve]",–
CC(C)C(=O)c1cn(Cc2ccc(C#N)cc2)c2ccccc12,"inconclusive: 8.91 µM [activator, partial curve, poor fit]",–
CCCC(=O)NC(Oc1ccccc1Cl)C(Cl)(Cl)Cl (stereo not drawn),"inconclusive: 14.1 µM [activator, partial curve, poor fit]",–

# Reference: PubChem BioAssay AID1347071 (National Center for Advancing Translational Sciences (NCATS), 2019)
